Test results: PubChem BioAssay AID1347165 (National Center for Advancing Translational Sciences (NCATS), 2019)
In all, about 220,000 compounds went through this assay and about 5,700 (2.6%) were called active. The inconclusive results got no clear call from the source; some entries with a clear call stand among them for comparison. Calls follow the shape of the dose curve; as a rule, active = well fitted inhibition curve with a large enough effect; inconclusive = small, poorly fitted or top-dose-only effect; inactive = no such curve, though single readings can be large or run the other way. A potency beside an inconclusive call is a rough fit, not a confirmed value.

Target: Lysine-specific demethylase 5B (Homo sapiens) (UniProt Q9UGL1)
Test: Primary screen for KDM5B Histone Demethylases FDH-coupled qHTS; also: nearly all actives have a fitted effect of over 70% in size; as to activity change, negative = inhibition: 0% is about no effect
Conditions: FDH-coupled NADH fluorescence (FDH is formaldehyde dehydrogenase); activity change, negative = inhibition: at 57.7 µM (top of the series) unless noted
How it was run: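 Coupled FDH/NAD⁺ fluorescence readout. KDM5BΔAP 200 nM final; compound titration, 10 min RT preincubation; substrate mix 12.5 µM H3K4me3, 25 µM 2-OG, 50 µM Fe(II), 100 µM ascorbate, 0.25 mM NAD⁺, 0.25 U/mL FDH; ΔRFU over 30 min.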
Potency is read from the fitted curve at half-maximal effect; tags tell the direction and shape of the fitted curve.

Sequence of UniProt Q9UGL1 (Q9UGL1 whole entry, looked up): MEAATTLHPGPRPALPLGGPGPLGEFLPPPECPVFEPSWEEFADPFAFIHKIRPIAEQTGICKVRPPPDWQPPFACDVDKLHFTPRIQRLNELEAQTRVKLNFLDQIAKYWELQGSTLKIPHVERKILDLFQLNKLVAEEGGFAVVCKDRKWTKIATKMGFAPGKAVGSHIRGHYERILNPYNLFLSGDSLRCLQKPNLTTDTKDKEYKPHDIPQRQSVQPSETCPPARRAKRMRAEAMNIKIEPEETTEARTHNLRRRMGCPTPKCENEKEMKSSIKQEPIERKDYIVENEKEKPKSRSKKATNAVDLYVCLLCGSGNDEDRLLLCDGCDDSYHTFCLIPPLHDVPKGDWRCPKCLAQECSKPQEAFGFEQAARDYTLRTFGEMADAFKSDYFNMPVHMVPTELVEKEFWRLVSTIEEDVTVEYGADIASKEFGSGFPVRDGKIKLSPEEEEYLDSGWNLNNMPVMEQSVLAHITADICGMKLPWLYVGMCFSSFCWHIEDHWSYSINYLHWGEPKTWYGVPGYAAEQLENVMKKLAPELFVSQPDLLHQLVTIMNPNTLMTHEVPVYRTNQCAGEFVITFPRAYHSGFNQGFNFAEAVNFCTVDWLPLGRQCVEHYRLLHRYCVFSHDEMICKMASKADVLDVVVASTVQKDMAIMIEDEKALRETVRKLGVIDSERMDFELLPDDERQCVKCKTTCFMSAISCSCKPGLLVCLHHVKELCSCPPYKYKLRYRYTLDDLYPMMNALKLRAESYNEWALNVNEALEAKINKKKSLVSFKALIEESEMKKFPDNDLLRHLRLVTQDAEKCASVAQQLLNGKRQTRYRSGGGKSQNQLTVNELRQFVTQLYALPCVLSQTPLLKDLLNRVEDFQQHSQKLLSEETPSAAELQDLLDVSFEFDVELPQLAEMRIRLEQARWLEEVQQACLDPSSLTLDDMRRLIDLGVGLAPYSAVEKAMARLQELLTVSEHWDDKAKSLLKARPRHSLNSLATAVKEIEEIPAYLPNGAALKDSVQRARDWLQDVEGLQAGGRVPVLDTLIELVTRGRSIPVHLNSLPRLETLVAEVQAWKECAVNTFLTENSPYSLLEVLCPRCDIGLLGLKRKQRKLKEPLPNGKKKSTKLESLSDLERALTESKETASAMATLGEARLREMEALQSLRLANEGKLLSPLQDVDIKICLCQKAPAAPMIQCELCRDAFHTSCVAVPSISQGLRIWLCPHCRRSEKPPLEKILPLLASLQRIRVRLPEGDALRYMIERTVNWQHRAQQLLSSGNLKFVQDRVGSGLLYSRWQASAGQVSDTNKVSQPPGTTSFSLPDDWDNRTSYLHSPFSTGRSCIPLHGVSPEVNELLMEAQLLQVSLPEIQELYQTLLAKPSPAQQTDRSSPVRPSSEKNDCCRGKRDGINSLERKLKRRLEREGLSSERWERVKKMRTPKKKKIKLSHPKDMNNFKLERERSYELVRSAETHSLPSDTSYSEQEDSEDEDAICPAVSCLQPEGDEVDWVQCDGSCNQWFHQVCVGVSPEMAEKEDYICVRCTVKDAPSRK

Row | Compound | Potency | activity change, negative = inhibition
1 | Cc1sc(NC2CCCC2)nc1-c1ccc(NS(C)(=O)=O)cc1 | inconclusive: 39.8 µM [inhibitor, single point] | 
2 | CCC(=O)NCCNC(=O)c1cc(-c2ccccc2)nc2ccccc12 |  | inactive: -12.9%
3 | Cc1ccc2nc(CN3CCN(S(=O)(=O)c4cccc(C(F)(F)F)c4)CC3)cn2c1 | inconclusive: 31.6 µM [inhibitor, partial curve, poor fit] | 
4 | Cc1ccc(CNC(=O)C(=O)NCC(c2ccc3c(c2)OCO3)N2CCOCC2)cc1 (configuration not stated) |  | inconclusive: -30.7% [inhibitor]
5 | CCOC(=O)C1(C)C=C(Nc2cccc(C(=O)O)c2)C(=O)N1c1ccccc1 (configuration not stated) | inconclusive: 31.6 µM [inhibitor, partial curve, poor fit] | 
6 | CC1=CC(=O)C(C(=O)/C=C/c2ccc(C)s2)C(=O)O1 (configuration not stated) | inconclusive: 20 µM [inhibitor, partial curve, poor fit] | 
7 | CNc1c(NC(=O)Nc2ccc(Br)cc2F)c(=O)oc2ccccc12 |  | inactive: 6.97%
8 | COc1ccc(C2C(C(=O)OC(C)(C)C)=C(C)N=C3SC=C(CC(=O)N4CCCC4)N32)cc1OC (configuration not stated) |  | inactive: -25.2%
9 | [O-]/[N+](=C\c1ccc2ccccc2n1)c1ccccc1 | inconclusive: 39.8 µM [inhibitor, single point] | 
10 | Cc1ccccc1Nc1c(-c2ccc(N3CCOCC3)cc2)nc2ccc(Br)cn12 | inconclusive: 15.8 µM [inhibitor, partial curve, poor fit] | 
11 | O=c1[nH]c(N2CCOCC2)nc2nccc(-c3cccnc3)c12 | inconclusive: 1.78 µM [inhibitor, full curve, poor fit] | 
12 | O=c1ccc(S(=O)(=O)N2CCCC2)cn1Cc1ncc(-c2ccc(Cl)cc2)o1 |  | inactive: -22.1%
13 | CC(=O)N1CCc2nc3sc(C(=O)Nc4ccc(Cl)cc4)c(N)c3c(C(F)(F)F)c2C1 |  | inactive: 4.3%
14 | CCC(NC(=O)c1ccc2nc(-c3ccc(F)cc3)cn2c1)c1ncc(C)[nH]1 (configuration not stated) | active: 25.1 µM | 
15 | COc1ccc(NC(=O)Cn2c(N3CCc4ccccc4C3)nc(C)cc2=O)cc1Cl |  | inactive: -17.1%
16 | CN1CCC2(C1)CN(CC1CC1)c1ccc(C(=O)NCCOc3ccccc3)cc12 (configuration not stated) | inconclusive: 39.8 µM [inhibitor, partial curve, poor fit] | 
17 | O=S(Cc1ccc(F)cc1)Cc1ccc(Cl)cc1 (configuration not stated) |  | inactive: -2.17%
18 | O=C(Nc1ccncc1)c1ccc(COc2cc(Cl)ccc2Cl)cc1 |  | inactive: 12%
19 | O=c1oc2ccc(Br)cc2cc1S(=O)(=O)c1ccccc1F |  | inactive: 12.5%
20 | CCCCN(CC)CCNC(=O)CCC(=O)Nc1ccc2nc(N3CCN(C)CC3)cc(C)c2c1 | inconclusive: 28.2 µM [inhibitor, partial curve, poor fit] | 
21 | COc1ccc2[nH]cc(CCN=C(NC(=O)c3ccccc3OC)Nc3nc(C)cc(C)n3)c2c1 | inconclusive: 3.98 µM [inhibitor, partial curve, poor fit] | 
22 | COc1cc2c(cc1OC)CN(C1CCCN(Cc3c(O)cccc3OC)C1)CC2 (configuration not stated) | inconclusive: 10 µM [inhibitor, partial curve] | 
23 | CC(C)COC(=O)c1ccc(NC(=O)C2=C(c3ccccc3)S(=O)(=O)CCO2)cc1 |  | inactive: 0.812%

Row | Compound | Potency | activity change, negative = inhibition
24 | Cc1c(CC(=O)Nc2ccc(C(F)(F)F)cc2)c(=O)oc2cc(O)ccc12 | inconclusive: 8.91 µM [inhibitor, partial curve, poor fit] | 
25 | Cc1cccn2c(=O)c(/C=C(\C#N)C(=O)NCc3ccco3)c(N3CCOCC3)nc12 | inconclusive: 39.8 µM [inhibitor, single point] | 
26 | O=C(N[C@@H](Cn1cc(Cl)c(=O)[nH]c1=O)C(=O)O)C1CCCCC1 | inconclusive: 31.6 µM [inhibitor, partial curve, poor fit] | 
27 | Cc1ccc(Nc2ccc(S(N)(=O)=O)cc2[N+](=O)[O-])cc1 |  | inactive: 11.1%
28 | COCCNC(=O)c1ccccc1NC(=O)c1nsc2ccccc12 | inconclusive: 39.8 µM [inhibitor, single point] | 
29 | CNC(=O)CN1c2ccc(Br)cc2-c2ccccc2S1(=O)=O |  | inactive: -8.86%
30 | CN(C)CCOCC1(C)COc2ccc(C(=O)Nc3cccc(Cl)c3)cc2N1 (configuration not stated) | active: 35.5 µM | 
31 | COC(=O)c1cc(NCc2cc(Cl)c(OCC(N)=O)c(OC)c2)ccc1N1CCOCC1 | inconclusive: 39.8 µM [inhibitor, single point] | 
32 | CN(Cc1nccs1)c1cc(C2CC(O)C2)ncn1 (configuration not stated) |  | inactive: 22.5%
33 | O=C(O)COc1ccc(-c2nccc3c2C(=O)N(Cc2cccc(C(F)(F)F)c2)CC(COc2cccc(F)c2)O3)cc1 (configuration not stated) | inconclusive: 17.8 µM [inhibitor, partial curve] | 
34 | CC(C)C[C@@H]1N[C@H](C(=O)NCC2CC2)Cc2cn(Cc3ccncc3)c3cccc1c23 |  | inactive: 13.6% [at 86.2 µM]
35 | O=C(NC1CC1)c1cc(Br)cn2ccnc12 | active: 39.8 µM | 
36 | O=C(Cc1ccccc1F)N1CCC(c2nc(C3CCOCC3)no2)C1 (configuration not stated) | inconclusive: 35.5 µM [inhibitor, partial curve, poor fit] | 
37 | Cc1ccccc1-c1cc(C(=O)NCCc2cnc[nH]2)c2c(c1)N(C)CCO2 | active: 35.5 µM | 
38 | COC(=O)Cc1c(C)c2ccc3c(c2oc1=O)CN(Cc1ccccc1Cl)CO3 | inconclusive: 6.31 µM [inhibitor, partial curve, poor fit] | 
39 | CCc1c(C)sc2c1CCN(Cc1ccccc1F)C2c1ccccc1 (configuration not stated) | inconclusive: 22.4 µM [inhibitor, partial curve, poor fit] | 
40 | CCOc1ccc(-c2c(C)nn3c(C)c(C(=O)NCCc4ccc(C)cc4)cnc23)cc1OCC | inconclusive: 44.7 µM [inhibitor, single point] | 
41 | O=C(CC1COCCN1)NCCc1cnn(-c2ccccc2)c1 (configuration not stated) | inconclusive: 22.4 µM [inhibitor, partial curve] | 
42 | CN(C)c1ccc(CN2CC[C@H](c3nc4cc(Cl)ccc4o3)C2)cc1 | inconclusive: 35.5 µM [inhibitor, single point] | 
43 | Cc1cccc(C)c1NC(=O)CSc1nc2c(cc1C#N)CCCC2 |  | inactive: 16.6%
44 | Cn1ccnc1C(NC(=O)Nc1ccc(Cl)cc1)c1ccccc1F (configuration not stated) |  | inactive: -3.98%
45 | O=C(c1cccs1)N1CCCCCCC1 |  | inactive: 19.7%
46 | O=C(O)c1cccc(CN2CCN(c3ccc4nccn4n3)CC2)n1 | inconclusive: 28.2 µM [inhibitor, partial curve, poor fit] | 

Row | Compound | Potency | activity change, negative = inhibition
47 | CC(NC(=O)CSCc1cccc(Br)c1)C1CC2CCC1C2 (configuration not stated) |  | inactive: 4.15%
48 | Cn1ccnc1C(O)(CC(=O)Nc1ccccc1)C(F)(F)F (configuration not stated) |  | inactive: -26.2%
49 | COc1ccc(C(C)=O)cc1COc1ccc2ccc(=O)oc2c1 | inconclusive: 22.4 µM [inhibitor, partial curve, poor fit] | 
50 | Cc1ccc(C2=NC(C(F)(F)F)(C(F)(F)F)c3c(n(-c4ccccc4)c(=O)[nH]c3=O)N2)cc1 | inconclusive: 39.8 µM [inhibitor, single point] | 
51 | CCN(CC)CCCNC(=O)CNc1nc(Cl)nc2nc[nH]c12 |  | inactive: -1.47%
52 | Cc1oc(-c2ccc(C(F)(F)F)cc2)nc1CN(C)C(C)c1cccs1 (configuration not stated) | inconclusive: 8.91 µM [inhibitor, partial curve] | 
53 | O=C(Cn1c(=O)nc(-c2ccccc2)c2ccccc21)Nc1ccc(Cl)cc1F | inconclusive: 17.8 µM [inhibitor, partial curve, poor fit] | 
54 | CCCCOC(=O)c1ccc(NC(=O)c2sc3nc(C)cc(C)c3c2N)cc1 | inconclusive: 17.8 µM [inhibitor, partial curve, poor fit] | 
55 | Cc1cc(C)n(CCC(=O)N[C@@H]2CN(Cc3ccncc3)C[C@H]2CN(C)C)n1 | inconclusive: 20 µM [inhibitor, partial curve, poor fit] | 
56 | COc1ccc(N(C)C(=O)Cn2cc(S(=O)(=O)N3CCN(c4ccccc4F)CC3)c3ccccc3c2=O)c(OC)c1 | inconclusive: 7.94 µM [inhibitor, partial curve, poor fit] | 
57 | Cc1cccc(-n2c(=O)c3ccccc3n(Cc3ccc(F)cc3)c2=O)c1 | inconclusive: 39.8 µM [inhibitor, single point] | 
58 | Cc1ccc(C(=O)COc2ccc3ccc(=O)oc3c2)cc1 | inconclusive: 15.8 µM [inhibitor, partial curve, poor fit] | 
59 | CCOC(=O)C1CCN(C(=O)c2nc3nc(-c4ccco4)cc(C(F)(F)F)n3n2)CC1 | inconclusive: 8.91 µM [inhibitor, full curve, poor fit] | 
60 | CN1CCC(C(=O)N2Cc3ccccc3CC3(CCCN(Cc4ccncc4)C3)C2)CC1 (configuration not stated) |  | inactive: -16.3% [at 115 µM]
61 | CCc1ccc(Nc2nc3ccccc3nc2NS(=O)(=O)c2ccccc2)cc1 | inconclusive: 22.4 µM [inhibitor, partial curve, poor fit] | 
62 | COc1cc(NC(=O)CSc2ncnc3nc[nH]c23)cc(OC)c1OC |  | inactive: 4.77%
63 | COc1cc(F)ccc1-c1nccc2c(=O)cc(-c3cnn(C)c3)oc12 | inconclusive: 31.6 µM [inhibitor, single point] | 
64 | O=C(c1ccccc1F)N1CCC2(CC1)C(=O)Nc1ccccc12 |  | inactive: -1.94% [at 149 µM]
65 | CC1CCN(C(=O)CSc2nc(-c3ccc(F)cc3)cc(C(F)(F)F)n2)CC1 | inconclusive: 1.58 µM [inhibitor, full curve, poor fit] | 
66 | Cc1c(CCC(=O)NC2(C)CCS(=O)(=O)C2)c(=O)oc2cc(O)ccc12 (configuration not stated) | inconclusive: 17.8 µM [inhibitor, partial curve, poor fit] | 
67 | Cc1ccc(-c2ccc3nnc(CNC(=O)COc4ccc(F)cc4)n3n2)cc1C | inconclusive: 22.4 µM [inhibitor, partial curve, poor fit] | 
